Reference: PubChem BioAssay AID504332 (National Center for Advancing Translational Sciences (NCATS), 2011)
Among all 350,000 compounds or so, about 31,000 (8.9%) were called active. The inconclusive results got no clear call from the source; some entries with a clear call stand among them for comparison. Calls come from the whole dose curve; as a rule, active = well fitted inhibition curve with a large enough effect; inconclusive = small, poorly fitted or top-dose-only effect; inactive = no such curve, though single readings can be large or run the other way. A potency beside an inconclusive call is a rough fit, not a confirmed value.

Molecular target: Histone-lysine N-methyltransferase EHMT2 (Homo sapiens) (UniProt Q96KQ7)
Assay: qHTS Assay for Inhibitors of Histone Lysine Methyltransferase G9a; note: nearly all actives have a fitted effect of over 75% in size
Details: G9a H3K9 monomethylation, AlphaScreen, 2 h; activity, negative = inhibition: at 59 µM (top of the series) unless noted
Method in brief: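 Signal arises when biotinylated H3K9 peptide, once monomethylated, bridges streptavidin donor and antibody-captured acceptor beads. Enzyme at 20 nM was preincubated 15 min with test compounds; peptide 500 nM and SAM 20 uM then reacted for 2 h.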
% is set by controls: 0 for no effect and ±100 for the full control effect; potency is the fitted concentration of half-maximal effect; tags give direction and shape of the fitted curve.

Chain of UniProt Q96KQ7 (Q96KQ7 whole entry, looked up): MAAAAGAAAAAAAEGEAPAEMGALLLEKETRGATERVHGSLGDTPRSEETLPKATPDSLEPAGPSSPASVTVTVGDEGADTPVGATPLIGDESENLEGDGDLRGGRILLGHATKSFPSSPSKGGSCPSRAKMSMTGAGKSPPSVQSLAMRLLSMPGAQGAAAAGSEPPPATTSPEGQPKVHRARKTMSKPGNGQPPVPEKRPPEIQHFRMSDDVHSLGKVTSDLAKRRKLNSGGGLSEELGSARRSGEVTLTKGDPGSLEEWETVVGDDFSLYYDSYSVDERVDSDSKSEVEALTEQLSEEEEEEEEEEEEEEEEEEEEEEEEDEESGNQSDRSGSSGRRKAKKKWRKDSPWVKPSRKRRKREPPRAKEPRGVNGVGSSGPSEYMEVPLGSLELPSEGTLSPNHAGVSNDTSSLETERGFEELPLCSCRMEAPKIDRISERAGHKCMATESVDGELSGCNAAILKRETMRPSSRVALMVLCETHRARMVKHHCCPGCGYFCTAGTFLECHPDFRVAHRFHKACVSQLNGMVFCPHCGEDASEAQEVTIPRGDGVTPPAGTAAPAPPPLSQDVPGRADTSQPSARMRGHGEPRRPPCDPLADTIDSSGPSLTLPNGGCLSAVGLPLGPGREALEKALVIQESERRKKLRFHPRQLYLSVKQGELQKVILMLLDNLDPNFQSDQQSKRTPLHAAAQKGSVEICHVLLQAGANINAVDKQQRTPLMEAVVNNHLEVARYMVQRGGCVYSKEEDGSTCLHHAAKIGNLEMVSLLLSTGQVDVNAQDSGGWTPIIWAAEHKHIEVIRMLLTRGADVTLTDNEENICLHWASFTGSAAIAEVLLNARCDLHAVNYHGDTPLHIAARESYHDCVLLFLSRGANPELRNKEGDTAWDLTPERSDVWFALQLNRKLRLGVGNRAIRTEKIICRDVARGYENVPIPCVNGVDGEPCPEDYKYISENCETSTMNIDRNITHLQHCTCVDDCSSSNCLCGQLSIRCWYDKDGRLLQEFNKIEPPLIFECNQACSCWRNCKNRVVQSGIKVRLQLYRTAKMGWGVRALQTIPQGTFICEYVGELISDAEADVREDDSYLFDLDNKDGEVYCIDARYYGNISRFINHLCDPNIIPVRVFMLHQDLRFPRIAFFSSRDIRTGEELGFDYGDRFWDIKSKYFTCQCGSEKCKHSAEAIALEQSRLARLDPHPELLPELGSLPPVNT

Compound | Potency | activity, negative = inhibition
COc1ccc(OCCSc2nnc(-c3ccc(OC)cc3)n2N)cc1 | inconclusive: 89.1 µM [inhibitor, partial curve, poor fit] | –
Cc1[nH]c(=O)[nH]c(=O)c1S(=O)(=O)Nc1ccc(Oc2ccccc2)cc1 | inconclusive: 50.1 µM [inhibitor, partial curve, poor fit] | –
COc1ccc(CCN(C(=O)c2cccc(F)c2)C2CC(=O)N(c3ccc(OC)cc3)C2=O)cc1 (configuration not stated) | inconclusive: 44.7 µM [inhibitor, partial curve, poor fit] | –
O=C(O)/C=C/C(=O)NCc1ccccc1 | inconclusive: 89.1 µM [inhibitor, single point] | –
COc1ccc(CCN2C(=O)CSC2=S)cc1OC | inconclusive: 89.1 µM [inhibitor, single point] | –
O=C(Nc1ccccc1)c1nc[nH]c1C(=O)NCc1ccccc1 | – | inactive: -3.11% [at 0.501 µM]
O=C(COC(=O)CCc1nc2ccccc2c(=O)[nH]1)Nc1ccc(N2CCOCC2)cc1 | active: 50.1 µM | –
O=C(c1nc2ccccc2[nH]1)c1ccccc1[N+](=O)[O-] | inconclusive: 70.8 µM [inhibitor, partial curve] | –
O=C(N/N=C/c1cc(Cl)cc([N+](=O)[O-])c1O)C1CC1 | inconclusive: 44.7 µM [inhibitor, partial curve, poor fit] | –
O=C(CSc1ccc(Cl)cc1)N/N=C/c1ccc([N+](=O)[O-])o1 | inconclusive: 0.631 µM [inhibitor, partial curve, poor fit] | –
CCn1c(NCc2ccc(N(C)C)cc2)nc2ccccc21 | active: 20 µM | –
Cc1csc2c(=O)sc(NC(=O)c3ccc(F)cc3Cl)nc12 | inconclusive: 79.4 µM [inhibitor, single point] | –
Cc1nn(CCCC(=O)Nc2cc(Oc3ccc(F)cc3)cc([N+](=O)[O-])c2)c(C)c1[N+](=O)[O-] | inconclusive: 22.4 µM [inhibitor, partial curve, poor fit] | –
COc1ccccc1N1CCN(S(=O)(=O)CCNC(=O)Cc2ccc(F)cc2)CC1 | inconclusive: 89.1 µM [inhibitor, partial curve, poor fit] | –
Cn1c(N)c(C(=O)COC(=O)Cc2ccsc2)c(=O)n(C)c1=O | active: 44.7 µM | –
COc1ccccc1N1CCN(C(=O)C2CCCN(S(=O)(=O)c3ccc4c(c3)oc(=O)n4C)C2)CC1 (configuration not stated) | inactive | –
O=C(N1CCN(c2ccccc2)CC1)C12CC3CC(CC(C3)C1)C2 | inconclusive: 50.1 µM [inhibitor, partial curve, poor fit] | –
